Results published in the supplement of paper PMC3334620.
Over roughly 33,000 sequences, “E-score (-0.5 to 0.5)” has its median near -0.012; the highest 2% begin near 0.27. This is one part of the list.

target: T1, Vhr1 (UniProt P40522); assay: PBM E-score (8-mer binding enrichment) (E-score (-0.5 to 0.5)); higher = stronger / more preferred TF binding; most listed sequences are background and not binding sites; conditions: protein concentration: 200 nM; construct: GST-full length
T1 sequence: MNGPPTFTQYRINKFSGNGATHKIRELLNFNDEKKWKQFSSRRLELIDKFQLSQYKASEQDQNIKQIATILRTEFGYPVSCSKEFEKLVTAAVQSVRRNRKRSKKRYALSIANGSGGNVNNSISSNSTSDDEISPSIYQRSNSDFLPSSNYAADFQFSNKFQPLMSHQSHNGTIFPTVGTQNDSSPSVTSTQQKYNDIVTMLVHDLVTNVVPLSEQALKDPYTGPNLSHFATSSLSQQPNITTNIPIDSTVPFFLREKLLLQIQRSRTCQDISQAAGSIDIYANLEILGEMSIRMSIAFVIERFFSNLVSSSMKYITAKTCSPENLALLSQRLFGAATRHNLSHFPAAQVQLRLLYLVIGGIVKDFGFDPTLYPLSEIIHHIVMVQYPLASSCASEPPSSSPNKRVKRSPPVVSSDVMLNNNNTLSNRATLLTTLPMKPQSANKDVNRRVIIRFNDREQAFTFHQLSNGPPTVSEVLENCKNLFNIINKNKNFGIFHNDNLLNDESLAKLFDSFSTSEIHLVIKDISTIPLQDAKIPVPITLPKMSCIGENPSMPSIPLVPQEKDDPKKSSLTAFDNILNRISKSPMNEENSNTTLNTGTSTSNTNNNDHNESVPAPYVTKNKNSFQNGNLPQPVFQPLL
Outline: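 Yeast transcription factors carrying a GST tag, as full-length proteins or DNA-binding domains, were produced by PURExpress in vitro transcription/translation. About 100-200 nM protein was applied to universal all-10-mer Agilent arrays, double-stranded by primer extension on fresh or once-stripped slides. Bound protein was detected with fluorescent anti-GST, and scans were normalised with masliner. The Universal PBM Analysis Suite gave each ungapped eight-base word, pooled with its reverse complement, an E-score, a modified Wilcoxon-Mann-Whitney statistic.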

Sequence	PBM E-score
ATATTATA	0.058
ATACACCG	-0.0231
ACGGAAGA	-0.0235
CTGGTCAA	-0.145
CTAGACCA	-0.0735
CGGCCTGA	-0.258
AAGCGGCC	-0.148
ATTTAGAA	-0.171
CCGTACCG	0.00374
GGCACAAA	-0.125
GACAAAGA	-0.12
CAGTGTAA	0.16
CACGAGCG	0.0391
GGACCCAC	0.196
AACCATTA	0.249
AGGAGCTC	-0.274
CCGGTCTA	-0.0435
GAGGATGA	0.145
AGACCATC	0.0276
CAGGTCTA	0.0507
CACTCCTC	0.183
CTACGACC	0.12

Sequence	PBM E-score
AGCTCCGG	0.102
GAGATTGC	-0.0236
AGCGTAGC	-0.142
AATAGCGG	-0.0726
GAGTATTA	0.117
CCTTCGTC	-0.164
CTCCGCCC	0.0697
GCAGAGTA	-0.0474
CAAACGGC	-0.0569
ATTGAAGG	-0.13
CCTGTGAC	0.188
AAGCTGAC	-0.0106
CCGGCATC	0.027
AAATGCCG	-0.128
CCGAACCA	0.0572
TCGGAGCA	-0.176
AGCCCGCA	-0.0483
ACCTGAGA	-0.109
CCCTCTAC	-0.113
AATGATTC	0.406
ACCGACCC	0.0413
GAGCCCGA	0.129

Sequence	PBM E-score
ACCGCAGT	0.0981
AAAAGGAC	-0.198
AACCACTG	0.161
CCCTATGC	-0.00502
AGAAAGCG	-0.187
ACTTCGGA	-0.00447
CCTAAGGA	-0.191
AGGCGACT	0.206
CAACACCG	0.0548
CTATAGTC	0.0579
ACTTACAA	-0.0175
AAGAGTAA	-0.0581
ATTCCTCG	0.0976
AACCGTAT	-0.13
ACTCCCCA	0.106
AGTGTCTA	0.0048
CCGCCCCA	0.349
CGTAATCA	0.273
CTTACTCC	0.0868
ATGGGTAA	0.269
GTGGCAAC	-0.161
CGGATCCG	0.0101

Sequence	PBM E-score
GGCCCTAA	-0.196
TATAGGGA	0.0239
CAGAGTCA	0.344
TATTCCCA	-0.181
AGATGGTC	-0.0726
GAGACTAA	-0.00777
CGGGCAGC	0.0935
CACCCGCG	0.218
AGCCGTTA	-0.199
GCGGGTCA	0.308
CTAGTCAG	0.247
GCCGCGGA	0.117
CTTACAAG	-0.238
AAATTTGA	-0.111
ACATACCT	0.089
GCGATTCC	0.227
GTACTGAC	0.214
CGATCTTC	-0.0711
AACTACGG	-0.192
CCCCGTTA	-0.095
